The results in this text go back to PubChem BioAssay AID463173 (ICCB-Longwood Screening Facility, Harvard Medical School, 2010).

Among all 52,000 compounds or so, about 1,700 (3.3%) were called active. Rule as the data show it: active = survival mostly below about 52% (no sharp cut-off); inactive = mostly above about 56%. Some of the results follow.

The subject of this experiment is Wild type. Put plainly: growth inhibition of S. aureus wild type versus tarO mutant, primary screen, teichoic acid synthesis inhibitors, RN4220, OD600 (AID 463173). As to conditions: S. aureus RN4220 wild type/DeltatarO growth, OD600, 18 h, stronger effect = lower value, screened at 18.75 µg/mL (by protocol).
`CCOc1ccc(-c2nnc(SCC(=O)c3ccc(Br)cc3)n2-c2ccccc2)cc1`: the survival is inactive: 92%.
With `COc1ccc(NC(=O)Cn2nnc3sc4c(c3c2=O)CCCC4)cc1` the figure was inactive: 69%.
For the compound `Cc1ccc(OCC(=O)Nc2ccc3nc(SCCOc4ccccc4)sc3c2)cc1`, the survival was inactive: 99%.
For `CCOC(=O)Cn1c(=O)oc2cc(S(=O)(=O)N3CCC(C(=O)OCC)CC3)ccc21`, the survival is inactive: 81%.
Regarding `Cc1ccc(NC(=O)CN2C(=O)COc3ccc(S(=O)(=O)Nc4ccccc4)cc32)c(C)c1`, the survival is inactive: 53%.
For `COc1ccc(CNC(=O)c2ccc3nc(C(C)C)oc3c2)cc1OC` the value was inactive: 54%; for `O=C(Nc1cccc2ccccc12)OC1C=CS(=O)(=O)C1` (configuration not stated), inactive: 107%; for `Cc1cc(C)c(NC(=O)CSc2nc3ccncc3[nH]2)c(C)c1`, inactive: 127%.
For `CC(C)NC(=O)C1CCN(c2ccc(S(=O)(=O)N3CCOCC3)cc2Cl)CC1`, the survival was inactive: 103%.
For the compound `Cc1ccc(C2=NC(c3ccccc3)=Nc3ccc(Cl)cc3N2)cc1`, the survival is inactive: 82%.
With `COCCCNC(=O)CSc1nc(-c2ccc(OC)c(OC)c2)[nH]c1-c1ccc(F)cc1`, the survival is inactive: 85%.
Take `Cc1cc(C)c2c(=O)cc(C(=O)NCc3ccc(S(N)(=O)=O)cc3)oc2c1`: the survival was inactive: 121%.
For `CCc1ccc(NC(=O)CCc2nnc3n(C)c(=O)c4sccc4n23)cc1` the value was inactive: 66%.
Take `COC(=O)c1cc2oc3ccccc3c2n1Cc1c(C)cc(C)cc1C`: the survival was inactive: 115%.
Turning to `Cc1cccc(NC(=O)C2CCCN(S(=O)(=O)c3ccc(Br)s3)C2)c1` (configuration not stated), the survival is inactive: 68%.
For `Cc1cc(C)cc(NC(=O)Cn2c(=O)n(Cc3ccco3)c(=O)c3oc4ccccc4c32)c1`, the survival is inactive: 106%.
As for `COc1cc2ccccc2cc1C(=O)Nc1cccc(-c2nc3cc(C)ccc3o2)c1C`, the survival is inactive: 75%.
For the compound `Cc1nn2c(=O)cc(COC(=O)COc3ccc(F)cc3)nc2s1`, the survival was inactive: 74%.
Take `Cc1nc2cccnc2n1-c1cccc(C(=O)NCCc2ccc(S(N)(=O)=O)cc2)c1`: the survival was inactive: 80%.
On to `COc1ccc(NC(=O)CS(=O)CC(=O)Nc2cc(OC)ccc2OC)cc1` (configuration not stated), for which the survival is inactive: 107%.
For the compound `CCN(CCCNC(=O)CSc1cc(=O)n(CC)c2ccccc12)c1ccccc1`, the survival is inactive: 64%.
`CCc1ccc(CNC(=O)Cn2ccc3cc(S(=O)(=O)N4CCCCCC4)ccc32)cc1`: the survival is inactive: 134%.
As for `O=C(NC1CCCC1)c1ccc2c(=O)n(Cc3ccccc3)c(SCc3ccc([N+](=O)[O-])cc3)nc2c1`, the survival was inactive: 73%.
Take `COc1ccc(OC)c2sc(N(Cc3cccnc3)C(C)=O)nc12`: the survival was inactive: 100%.
In the case of `CCOC(=O)N1CCN(Cc2nc3cc(NC(=O)CC)ccc3n2C(C)C)CC1`, the survival is inactive: 97%.
For the compound `CCc1ccc(-n2nc(CO)c(C(=O)NC(C)c3ccc(Cl)cc3)n2)cc1` (configuration not stated), the survival was inactive: 97%.
Regarding `COc1cccc(CNC(=O)CN2C(=O)CCc3cc(S(=O)(=O)N4CCOCC4)ccc32)c1`, the survival was inactive: 89%.
As for `CCOC(=O)/C(C#N)=C/C1=C(N)CC(C)(C)OC1`, the survival was inactive: 104%.
`CN1CCN(C(=O)C2CCN(S(C)(=O)=O)CC2)CC1`: the survival was inactive: 109%.
For `Cc1ccc(Sc2ccc(N3CCCC(C(=O)Nc4ccc(Br)cc4)C3)nn2)cc1` (configuration not stated), the survival was inactive: 57%.
With `CSc1nnc(COc2cccc(C)c2)n1C`, the survival was inactive: 95%.
Turning to `O=C(NCCc1ccc(Cl)cc1)c1cc(-c2ccccc2)n[nH]1`, the survival is inactive: 80%.
Take `COc1ccc(SCc2cc(=O)c3ccc(C)c(C)c3[nH]2)cc1`: the survival was inactive: 73%.
Turning to `Cc1c(C)n(Cc2ccccc2)c2ccc(C(=O)N3CCN(c4ccccc4F)CC3)cc12`, the survival is inactive: 71%.
Regarding `Cc1nc2ccn(Cc3cccnc3)c(=O)c2cc1C(=O)N1CCN(c2ccccc2F)CC1`, the survival was inactive: 73%.
On to `Cc1ccc(C)c(N2CCN(c3nc4ccccc4c(=O)n3-c3ccc(Cl)cc3)CC2)c1`, for which the survival was inactive: 78%.
As to `COc1ccc2c(c1)Cc1sc(NC(=O)c3ccccc3C)nc1-2`, the survival was inactive: 133%.
Take `CC(C)(C)C(=O)Nc1cccc(C(=O)O)c1`: the survival was inactive: 106%.
For `CCOc1ccc(-c2nnc(SCC(=O)NC3CCCCC3)nc2-c2ccc(OCC)cc2)cc1` the value was inactive: 94%; for `COc1ccc(C2=C(C)C(N3CCC(C(=O)NCc4ccc(C)o4)CC3)=NS2(=O)=O)cc1`, inactive: 76%.
Turning to `COc1cc(C)nc(N(C)S(=O)(=O)c2ccccc2)n1`, the survival was inactive: 108%.
`COc1ccc(NC(=O)Cn2cnc3ccc(S(=O)(=O)N4CCC(C)CC4)cc3c2=O)c(OC)c1`: the survival was inactive: 95%.
As to `COc1cccc(CNC(=O)c2ccc(-c3nc(CS(=O)c4ccccc4)c(C)o3)cc2)c1` (configuration not stated), the survival is inactive: 69%.
For `COCCN(Cc1cc2c(C)cc(C)cc2nc1Cl)C(=O)c1ccco1`, the survival was inactive: 105%.
With `Cc1ccc(NC(=O)Cc2ccc(NC(=O)N3CCCCc4ccccc43)cc2)cc1Cl` the figure was inactive: 66%; with `CCN(CC)c1ccc(NC(=O)Cn2ncc3c(C)n(Cc4ccccc4F)c(C)c3c2=O)c(C)c1`, inactive: 97%; with `COc1ccc(/C=C/C(=O)Nc2ccc(C)cc2)cc1`, inactive: 85%.
Take `CC(=O)c1ccc(NC(=O)Nc2ccc3snnc3c2)cc1`: the survival is inactive: 69%.
Regarding `CC1CC(C)N(C(=O)c2cc(-c3ccccc3)on2)C(C)C1` (configuration not stated), the survival was inactive: 129%.
Take `CCOC(=O)c1ccc(N2C(=O)c3n[nH]c(-c4ccco4)c3C2c2ccc(OC)cc2OC)cc1` (configuration not stated): the survival was inactive: 82%.
`COc1cccc(-c2nc(S(=O)(=O)c3ccc(C)cc3)c(N3CCCCCC3)o2)c1`: the survival was inactive: 44%.
Take `Cc1cccc(C)c1-n1ncc(C(=O)NCCCN2CCCCC2)c1C1CCN(C(=O)OC(C)(C)C)CC1`: the survival was inactive: 85%.
In the case of `CCCCOc1ccc(C(=O)NCC(c2ccc(Cl)cc2)N2CCOCC2)cc1` (configuration not stated), the survival was inactive: 67%.
For `COC(=O)c1nnn(-c2cccc(C)c2)c1N` the value was inactive: 68%.
In the case of `O=C(Nc1ccc(Oc2ccccc2)cc1)c1ccc(F)c(S(=O)(=O)N2CCN(c3cccc(Cl)c3)CC2)c1`, the survival was inactive: 73%.
Take `CCOc1ccc2[nH]c(=O)c(CNCCCO)cc2c1`: the survival is inactive: 114%.
With `CCC(=O)Nc1nnc(CC(=O)N/N=C/c2ccc(O)cc2)s1` the figure was inactive: 112%.
